Measured values: the RNAGym collection of RNA variant scans (doi:10.1093/nar/gkz1192)
Read counts are not given, so values of variants with three or more changes are uncertain.

B1: CPEB3 Ribozyme (parent)
chain: UAACAGGGGGCCACAGCAGAAGCGUUCACGUCGCAGCCCCUGUCAGAUUCUGGUGAAUCUGCGAAUUCUGCUGUAUAUCUC

Variants of: B1
Assay: self-cleavage, relative activity (ratio to wild type); higher = more cleavage; in vitro, sequencing
Outline: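 Barcoded CPEB3 ribozyme mutants, produced by rounds of error-prone PCR, self-cleaved while being transcribed with T7 RNA polymerase for 5 hours at 37°C and during a subsequent 15 min DNase I step before EDTA was added. Sequencing of template-switched cDNA on Illumina gave cleaved and total reads, and DNA sequencing assigned barcodes to variants. Each variant's relative activity is its cleaved/total read fraction divided by the unmutated ribozyme's fraction, averaged across three batches. A variant needed a minimum of 5 reads.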

Variant	self-cleavage
A5G A57G U66C	0.35
A5G A57G U66C U67C U69A U76C	0.39
A5G A57G U80C	0.77
A5G A57U G63U U78C	0.5
A5G A64G U66A U67C U78A	0.13
A5G A64G U67C	0.29
A5G A64G U74C	0.91
A5G A64U A77G	0.08
A5G A64U U66C C68A	0.23
A5G A64U U78C	0.09
A5G A65G C79A	0.46
A5G A65G U74A	0.26
A5G A65G U80A	0.43
A5G A65U A75U	0.19
A5G C11A A21G A45C U49A	0.08
A5G C11A C27A C34G U72C U80A	0.32
A5G C11G A28G U78C	0.49
A5G C11G C39G U60A U67A U69A	0.16
A5G C11G U26A A47G U69A	0.18
A5G C11G U26A A64U U78C	0.03
A5G C11G U43A U48A U72C U74C	0.28
A5G C11G U74C C81A	1.14
A5G C11U A15G G73A	0.53
A5G C11U A18U G24A A45G U58C	0.06

Variant	self-cleavage
A5G C11U A20G	0.33
A5G C11U A45G	0.49
A5G C11U G19U U41A	0.08
A5G C11U G30A U72C A75G	0.22
A5G C11U U26A A35U	0.12
A5G C11U U41C U43C	0.3
A5G C11U U43C	0.36
A5G C11U U43C A64U U80C	0.28
A5G C12G A21U U31A A45G C68A	0.03
A5G C12U A28G	0.7
A5G C12U A64G U67C	0.11
A5G C12U A75U U78C	1.1
A5G C12U C14A A21G U51C U60C	0.2
A5G C12U G52U A65G U69A	0.08
A5G C14A U58A U76C	0.06
A5G C14U A15U U31C U51C C68A	0.26
A5G C14U A18G U41C U43A U80A	0.19
A5G C14U A28G U49C U51C	0.11
A5G C14U U25C A35U A45U	0.05
A5G C14U U26C C37U A56U U78C	0.07
A5G C14U U43C A57G U66A U78C	0.08
A5G C17A A28G U78C	0.09
A5G C17A U26C A35G C50U	0.09
A5G C17G A18G	0.41

Variant	self-cleavage
A5G C17G A18G U41C U54A	0.37
A5G C17G A18U U25C U54C U72A	0.25
A5G C17G A20G C32G U60C	0.05
A5G C17G A28G U78C	0.36
A5G C17U A47G A56G	0.13
A5G C17U U25C C40A U54A U60A A64G	0.12
A5G C17U U31C A47G U72A	0.06
A5G C17U U31C U60A	0.15
A5G C17U U80A	0.32
A5G C23A A35G U49C U67C	0.13
A5G C23A A35G U60C U67C	0.1
A5G C23A A64U	0.28
A5G C23A U25C U41C U49A A77U	0.06
A5G C23A U41A U58A U69C	0.07
A5G C23A U43C U51C U54C U69C	0.06
A5G C23A U69C	0.39
A5G C23G C29U U69A U72C	0.1
A5G C23G G46U U76A	0.09
A5G C23G U25C U51G U54A	0.08
A5G C23G U26A A45U U69A	0.11
A5G C23G U41A U80C	0.1
A5G C23G U72A	0.09
A5G C23U A35G U60C A64U U67C U78C	0.1
A5G C23U A35G U60C U67C	0.15

Variant	self-cleavage
A5G C23U A35G U60C U67C U78A	0.07
A5G C23U A35G U60C U69C	0.1
A5G C23U G24A U25C C27A	0.48
A5G C23U U26C U31A U72C	0.04
A5G C23U U41C U48C U54C	0.09
A5G C23U U66C	0.08
A5G C27A C38A U80A	0.23
A5G C27A U51A U69C A75U	0.22
A5G C27G U51A A57G	0.29
A5G C27U A35G A65C	0.19
A5G C29G A64G	0.15
A5G C29G U31C G36A U51A A56G U74C	0.08
A5G C29G U41C	0.36
A5G C29U A75U U76A	0.56
A5G C29U C32U U48C U49C A57U U58C	0.09
A5G C29U G30C G52A U72C U74A	0.09
A5G C29U G30C G52U A57G	0.16
A5G C29U G52C A56G	0.41
A5G C29U U41A A64U U72G	0.21
A5G C29U U51C A64G	0.19
A5G C32A C37A	0.47
A5G C32A G52A U60C A65G	0.12
A5G C32A U69C	0.12
A5G C34A U41C U60C U78C	0.26

Variant	self-cleavage
A5G C34A U43C A64G	0.14
A5G C34G C40A A64G U76A U78C	0.22
A5G C34U U60C	0.39
A5G C37A C44U A64U A75U	0
A5G C38U A56C	0.22
A5G C39A U54C A64G U76A	0.09
A5G C39A U54C U60A U72A U80C	0.29
A5G C39A U58C U67C U69A	0.56
A5G C40A A45U A64G C68G U80A	0.35
A5G C40A U60A A64G U72G	0.19
A5G C40U G42A U43C A45G U49C A75G	0.09
A5G C40U U69C	0.24
A5G C44A A47G	0.35
A5G C62A U69A U72A	0.12
A5G C62U U72C A75G	0.19
A5G C68A U72C	0.16
A5G G6A A13U	0.17
A5G G6A A15U A21G A56G U69C	0.29
A5G G6A A21G U26A U67C	0.06
A5G G6A A35G U66C	0.32
A5G G6A A35U A56G U69C	0.08
A5G G6A C11U	0.31
A5G G6A G7A	0.43
A5G G6A G8A C14U A28U U54C	0.05

Variant	self-cleavage
A5G G6A G8A U51C A64U	0.06
A5G G6A G9A G10C A35G U54A	0.08
A5G G6A G33A A35G U74C U80C	0.24
A5G G6A U25C U80C	0.09
A5G G6A U26C C62A	0.28
A5G G6A U48C U49G A65G U78C U80A	0.15
A5G G6C A15U U25C G61A U74C	0.45
A5G G6C G9U U31C	0.56
A5G G6C G61A U74C	0.48
A5G G6U A13U U41C U76C	0.53
A5G G6U A18U U25C C39U	0
A5G G6U A64U U67C	0.09
A5G G7A A28C A65G U69A U72C	0.16
A5G G7A A28U A35G U43A G70C	0.1
A5G G7A U25A U54C U80C	0.06
A5G G7A U72C	0.49
A5G G7C G24A	0.47
A5G G7C G46U U80A	0.25
A5G G7U A13U G46C A56U A64U A65G	0.07
A5G G7U A15G U41A U51C	0.08
A5G G7U A18U	0.25
A5G G7U A47G U60C	0.22
A5G G7U A56G U67A U72A	0.07
A5G G7U A57G A64C U69G U74G	0.13

Variant	self-cleavage
A5G G7U U72C	0.5
A5G G8A A28G	0.2
A5G G8A C11U U43G	0.06
A5G G8A C14U A18G A20G C23U	0.26
A5G G8A G33A	0.3
A5G G8A U26A A47G A77G	0.05
A5G G8A U43A A45U	0.24
A5G G8A U43A U74A	0.7
A5G G8A U51A A64G U72C A77G	0.05
A5G G8C U25A A28G U43C U80C	0.12
A5G G8C U26C	0.52
A5G G8U A20G C50U U54C	0.17
A5G G8U A21G U26A U48C U60G	0.07
A5G G8U A56U C68A A75U	0.07
A5G G8U C32U U58C U66C	0.08
A5G G8U U25C U31C	0.3
A5G G8U U26C U51C U54A	0.06
A5G G9A A13U A21G U78A	0.06
A5G G9A A15G G55U	0.16
A5G G9A A18G	0.12
A5G G9A A18U A35U U69C	0.07
A5G G9A A20G U25A U41A U69C	0.07
A5G G9A A20U A45G	0.36
